ChEMBL document CHEMBL4888484, “Replenishing the malaria drug discovery pipeline: Screening and hit evaluation of the MMV Hit Generation Library 1 (HGL1) against asexual blood stage Plasmodium falciparum ,using a nano luciferase reporter read-out” (2022)
About 540 (0.36%) of roughly 150,000 compounds showed an effect of 50% or more. The list shows a part of the results.

Test system: Plasmodium falciparum
Assay: Primary screen in NF54 nanoGlo assay, in single point, at 2uM, 72h; a lower Z score goes with more inhibition
Format: functional, Erythrocyte
Details: timepoint 72 hour

| Structure (SMILES) | % Inhibition [%] | Z score |
| --- | --- | --- |
| O=C(CCC1CCN(Cc2ccccc2C(F)(F)F)CC1)NCc1ccc(F)cc1 | 8 | -1.02 |
| O=C(Nc1cccc(Cl)c1)Nc1cc(S(=O)(=O)N2CCOCC2)ccc1NC[C@H]1CCCO1 | -6 | 0.92 |
| OCCc1cnn(Cc2cnn(-c3ccccc3)n2)c1 | -6 | 0.62 |
| CC1CN(C(=O)OC(C)(C)C)CC1C(=O)NC1CCC(=O)N(C)C1 (stereo not drawn) | 0 | 0 |
| CCN(C(=O)c1nc(C)oc1C)C(C)C(O)c1ccccc1 (stereo not drawn) | -9 | 0.91 |
| COC(=O)Cc1csc(CNC(=O)COCc2ccccc2C)n1 | -6 | 1.31 |
| CC(C)C(=O)NCc1ccc(-c2ccoc2)cc1 | -10 | 1.11 |
| Cn1ncc(Cl)c1CN1CCC(O)(Cc2cccc(F)c2)CC1 | -9 | 1.46 |
| O=C(Nc1nc(-c2ccc3c(c2)OCCO3)cs1)[C@@H]1COc2ccccc2O1 | -7 | 0.75 |
| O=C1NC(=O)[C@@]2(CCCN(C(=O)Nc3cccc4ccsc34)C2)N1 | 9 | -1.18 |
| Cc1c(C(=O)NCc2ccccc2CN2CCOCC2)cccc1N(C)S(C)(=O)=O | 1 | -0.08 |
| O=C1CCC2(CCN(C(=O)[C@H]3CCOC3)CC2)CN1Cc1ccco1 | -8 | 1.51 |
| Cc1ccc(N(C)C(=O)N2CCN(c3ccccn3)CC2)cc1 | -2 | 0.38 |
| Cc1nnc(N2CCC[C@H](n3ccc(C(F)(F)F)n3)C2)o1 | -9 | 1.34 |
| CCC1CN(C(=O)c2csc(CN)n2)CC(C)O1 (stereo not drawn) | -4 | 0.45 |
| CO[C@@H](C(=O)N(c1nc(-c2ccccc2)c(C)s1)c1cccc(Cl)c1Cl)c1ccccc1 | -9 | 1.22 |
| Cc1c([C@@H]2CCCN2Cc2cccc3[nH]ccc23)cnn1C | 4 | -0.77 |
| CCn1c(C(=O)Nc2ccccn2)nnc1N1CCC(OC)CC1 | -15 | 1.98 |
| CCn1c(CC2CCNCC2)nn(Cc2cc(C)cc(C)c2)c1=O | -16 | 2 |
| O=C(Nc1nccs1)c1cc(N2CCC(Cc3ccccc3)CC2)nc2ccccc12 | 3 | -0.35 |
| c1cc(-c2nc([C@H]3CCOC3)no2)cc(-n2cnnc2)n1 | -6 | 1.12 |

| Structure (SMILES) | % Inhibition [%] | Z score |
| --- | --- | --- |
| CCc1nc(C)c(C(=O)Nc2nn(CC(F)(F)F)c3cccc(OC(C)C)c23)o1 | -14 | 1.34 |
| COCc1sccc1C(=O)NCC1(S(C)(=O)=O)CCCCC1 | 0 | -0.01 |
| COc1cc(OC)cc(C(=O)N/C(=N/c2ccccc2)NCCN2CCOCC2)c1 | -9 | 0.85 |
| CCN1CCN(C(=O)c2ccc(OC)c(S(=O)(=O)N3CCCCC3)c2)CC1 | -8 | 1.29 |
| CCS(=O)(=O)N(C)C1CCN(C(=O)Cn2cnc3c2CCCC3)CC1 | 12 | -1.37 |
| CCc1nc(C)sc1Cn1ccnc1-c1ccc(C#CCO)s1 | -13 | 1.88 |
| COc1ccc(NC(=O)c2nc(-n3ccnc3)ncc2Br)cc1 | -8 | 0.92 |
| O=C(c1cncc(Br)c1)N1CC(Oc2nc3ccccc3s2)C1 | -9 | 0.96 |
| Cc1cc(=O)[nH]c2ccc(-c3cccc(C(=O)N4C[C@@H](C)O[C@@H](C)C4)c3)cc12 | 7 | -0.94 |
| COCc1ccc(C(=O)N(CCN(C)C)CC(C)C)cc1 | 4 | -0.53 |
| COCCCNC(=O)c1nn2c(C)cc(C)nc2c1-c1ccc(OC)c(S(=O)(=O)N2CCCCC2)c1 | -9 | 0.88 |
| Cc1ccc(-c2noc(CN3C(=O)CCC3=O)n2)cc1 | -19 | 2.29 |
| CC(C)(C)c1cc(C(=O)NC2(c3ncon3)CCOCC2)[nH]n1 | -9 | 0.96 |
| COc1ccc([C@H](CO)N(C)CC(=O)N2CCCCCCC2)cc1 | -1 | 0.15 |
| O=C(Cc1ccccc1F)NC1(c2ccccc2)CCOCC1 | -7 | 0.93 |
| COc1cc(NC(=O)c2c(OC)cccc2OC)ccc1N1CCCCC1=O | -4 | 0.62 |
| CCNC(=O)N1CC(C(=O)NCC2CC2)C(c2cccc(OC)c2OC)C1 (stereo not drawn) | -11 | 1.5 |
| O=C(Cc1ccc(OC(F)F)c(F)c1)N[C@H]1CCn2ccnc21 | 12 | -1.58 |
| CC(C)[C@H]1CN(S(=O)(=O)c2cccnc2)C[C@@H]1N(C)C | 1 | -0.23 |
| CCOc1cccc(CN(CCO)c2ncnc3oc(C)nc23)c1 | -12 | 1.56 |
| O=C(Nc1ccccc1)N1CCc2nc(N3CCc4ccccc4C3)nc(Oc3cccc(F)c3)c2C1 | 10 | -1.2 |

| Structure (SMILES) | % Inhibition [%] | Z score |
| --- | --- | --- |
| O=C1NCCC[C@@H]1Oc1nc2ccccc2s1 | 4 | -0.54 |
| COCC1(CNC(=O)N(C)CCn2ccc3ccccc32)CCC1 | -7 | 1.19 |
| CN1C(=O)NC[C@H]1c1nc(-c2ccc(N3CCCCC3)cc2)no1 | 9 | -1.79 |
| Cc1ccc(-n2nc3c(c2NC(=O)c2cccs2)CS(=O)(=O)C3)cc1C | -14 | 2.33 |
| COCCCN1CC(=O)N[C@@H]2CN(Cc3ccncc3)CC[C@@H]2OCc2cccc(c2)Oc2ccc(cc2OC)CCC1=O | -2 | 0.27 |
| CCCS(=O)(=O)NCC(=O)N1CCCCCNC(=O)C[C@H]1c1ccccc1 | -9 | 1.12 |
| O=S(=O)(NCCN1c2ccccc2N(C2CC2)S1(=O)=O)N1CCOCC1 | 21 | -2.74 |
| CNS(=O)(=O)c1cc(F)ccc1Cl | -7 | 1.44 |
| CN(C(=O)CCn1cc(S(N)(=O)=O)cn1)C1CCCCCC1 | -21 | 1.95 |
| CCOc1ccc2cc(C(=O)Nc3cc(C(N)=O)ccc3NCc3ccccc3)[nH]c2c1 | -10 | 1.83 |
| COc1ccc(Oc2c(CN(C[C@@H](O)Cc3ccccc3)C3CC3)c(-c3ccccc3)nn2C)cc1 | -17 | 1.74 |
| COc1ccccc1C1(CNS(=O)(=O)c2c(C)nn(C)c2C)CCOCC1 | -4 | 0.84 |
| CC[C@H](C)NC(=O)N(Cc1cccc(OC)c1)C1CCC(O)CC1 (stereo partly drawn) | -11 | 1.24 |
| O=C(O)CCCn1cc(NC(=O)C(c2ccccc2)c2ccccc2)cn1 | 28 | -3.19 |
| C[C@H](CO)N(C)Cc1ccc(Cl)c(F)c1 | 0 | 0.02 |
| CN(C)C(=NCCS(=O)(=O)CC1CCC1)N(C)C | 0 | 0.04 |
| Cc1cc(C(=O)N(C)Cc2ccc(-n3cccn3)cc2)n(CCN(C)C)n1 | -5 | 0.69 |
| Cc1nn(C)c2nc(N(Cc3cnn(C)c3)CC(C)C)sc12 | 3 | -0.48 |
| CO[C@H]1CN(C(=O)CCc2ccc(C)cc2)C[C@@H]1O | 0 | -0.08 |
| COCCc1noc(CNC(=O)c2cc(C3CC3)no2)n1 | 8 | -1.46 |
| Cc1nc(-c2cc(C)[nH]c(=O)c2)n(-c2cccc3cccnc23)n1 | -10 | 1.25 |

| Structure (SMILES) | % Inhibition [%] | Z score |
| --- | --- | --- |
| CCN(CC)C(=O)CCS(=O)(=O)C1CCCC1 | -6 | 0.77 |
| O=C(c1cn2cccnc2n1)N(C1CCCCC1)C1CC1 | -7 | 0.61 |
| CCN(CC)C(=O)[C@@H]1C[C@H](N)CN1C1CCN(c2ccccc2Cl)CC1 | -19 | 2.05 |
| Cc1nc(Oc2cccc3c2OCCC3)ccc1C#N | -8 | 1.44 |
| Cc1nnnn1C(Cc1ccccc1)C(=O)N1CCOC2CCCCC21 (stereo not drawn) | 1 | -0.2 |
| CS(=O)(=O)c1cccc2c1N(C(=O)c1ocnc1C1CC1)CCC2 | -14 | 2.62 |
| O=C(Nc1nc2c(s1)CCC2)c1cccnc1Oc1ccc(F)cc1Br | 3 | -0.42 |
| CC(C)(C)c1ccc(OCC2CCN(Cc3cc(C4CC4)on3)CC2)nn1 | -9 | 1.06 |
| CC(C)CCCOCc1cccc(N)c1 | -3 | 0.28 |
| CCCc1ncncc1C(=O)N1CC[C@@H]2OCc3cccc(c3)Oc3cc(OC(C)C)cc(c3)C(=O)N(CC)CC(=O)N[C@H]2C1 | 8 | -1.15 |
| CCn1cc(C(=O)N[C@@](C)(CC)CCO)cn1 | -1 | 0.08 |
| c1cnc(NCCc2noc(C3CCCC3)n2)nc1 | -6 | 1.09 |
| Cn1ccc(NC(=O)CNC(=O)C(C)(C)C)n1 | 6 | -0.71 |
| COc1ccc2c(c1)N1CCN(CC(=O)N3CCOCC3)CC1C(C(=O)NCc1ccc(F)cc1)C2 (stereo not drawn) | -4 | 0.53 |
| Cn1ncc2c(=O)n(Cc3nc(COc4ccc(Cl)c(F)c4)no3)cnc21 | -2 | 0.29 |
| Cc1cc(NCc2nc3cc(F)ccc3[nH]2)nc(N)n1 | 6 | -1.16 |
| CN(Cc1nccn1C)c1nccc(N2CCN[C@@H]3CS(=O)(=O)C[C@@H]32)n1 | -9 | 1.06 |
| CCc1nnsc1C(=O)N1CCC2(CC1)c1ccccc1C[C@@H]2O | 7 | -1.32 |
| Cc1c(CNC2CCCCCCC2)c(C(=O)O)c(C)n1Cc1ccccc1 | -7 | 0.82 |
| O=S1(=O)CCCN1Cc1nnnn1-c1ccccc1 | 9 | -1.26 |
| O=C(C1CCCCC1)N1CCc2ccccc21 | -7 | 0.93 |
